Experimental findings from PMC8850586 are described below.

Sequences of proteins named here, by UniProt entry; tags and fusion partners are left off. A change or cut given only in a name is not applied to a line headed by its entry.
UniProt P49841: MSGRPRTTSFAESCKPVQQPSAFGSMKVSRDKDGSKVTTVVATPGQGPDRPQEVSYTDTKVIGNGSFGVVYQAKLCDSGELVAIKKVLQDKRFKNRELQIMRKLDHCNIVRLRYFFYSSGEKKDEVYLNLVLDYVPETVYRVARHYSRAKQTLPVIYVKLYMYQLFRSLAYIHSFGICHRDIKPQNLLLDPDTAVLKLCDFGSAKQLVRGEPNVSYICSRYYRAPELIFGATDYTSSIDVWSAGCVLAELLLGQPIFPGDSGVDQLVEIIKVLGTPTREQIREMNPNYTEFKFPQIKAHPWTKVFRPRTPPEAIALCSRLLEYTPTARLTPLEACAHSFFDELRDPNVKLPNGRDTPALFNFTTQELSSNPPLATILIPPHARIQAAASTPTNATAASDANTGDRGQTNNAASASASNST
UniProt P10644: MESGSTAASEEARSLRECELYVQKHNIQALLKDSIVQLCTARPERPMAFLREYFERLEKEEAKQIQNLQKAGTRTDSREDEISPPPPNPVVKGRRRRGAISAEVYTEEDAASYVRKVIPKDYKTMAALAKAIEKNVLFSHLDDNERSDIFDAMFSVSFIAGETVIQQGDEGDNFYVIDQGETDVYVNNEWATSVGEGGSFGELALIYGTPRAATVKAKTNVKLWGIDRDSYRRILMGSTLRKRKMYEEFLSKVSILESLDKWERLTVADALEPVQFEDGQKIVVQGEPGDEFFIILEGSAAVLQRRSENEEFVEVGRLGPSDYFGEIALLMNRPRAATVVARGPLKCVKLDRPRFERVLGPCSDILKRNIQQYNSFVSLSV

Test [1] addresses T1, wild-type HK2 (catalytically active) expressed in MI5-4 CHO cells (rat) (UniProt P27881).
T1 sequence: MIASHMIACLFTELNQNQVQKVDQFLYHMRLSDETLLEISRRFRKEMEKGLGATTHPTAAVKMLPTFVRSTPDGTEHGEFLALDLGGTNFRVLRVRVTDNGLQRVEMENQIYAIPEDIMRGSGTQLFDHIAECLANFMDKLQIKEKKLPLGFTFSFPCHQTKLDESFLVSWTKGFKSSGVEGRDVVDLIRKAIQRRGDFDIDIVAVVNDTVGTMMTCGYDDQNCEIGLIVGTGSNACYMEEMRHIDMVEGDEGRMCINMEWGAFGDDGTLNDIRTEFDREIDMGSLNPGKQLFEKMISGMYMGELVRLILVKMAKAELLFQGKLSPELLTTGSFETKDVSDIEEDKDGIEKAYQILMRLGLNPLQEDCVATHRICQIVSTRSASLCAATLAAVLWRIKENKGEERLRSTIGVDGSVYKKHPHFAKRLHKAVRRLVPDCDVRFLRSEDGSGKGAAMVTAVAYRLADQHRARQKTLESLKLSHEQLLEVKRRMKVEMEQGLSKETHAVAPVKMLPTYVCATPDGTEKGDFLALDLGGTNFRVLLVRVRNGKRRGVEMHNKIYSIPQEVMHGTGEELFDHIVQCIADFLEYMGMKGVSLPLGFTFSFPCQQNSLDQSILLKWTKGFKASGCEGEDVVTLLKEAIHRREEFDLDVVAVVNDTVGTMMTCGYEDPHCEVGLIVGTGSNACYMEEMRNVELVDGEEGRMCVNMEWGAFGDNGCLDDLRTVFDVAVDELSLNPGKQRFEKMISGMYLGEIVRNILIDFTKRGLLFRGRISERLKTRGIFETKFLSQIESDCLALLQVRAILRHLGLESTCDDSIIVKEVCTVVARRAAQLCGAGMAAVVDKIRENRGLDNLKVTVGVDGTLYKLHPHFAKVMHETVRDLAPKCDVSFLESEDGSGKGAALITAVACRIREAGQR
As to the kind of experiment: co-IP; MI5-4 CHO cells expressing HK2, without 2-DG (Supplementary Fig. 7c; its methods were not shown).

The target of the next test is T2, Myc-HK2 (UniProt P52789).
T2 sequence: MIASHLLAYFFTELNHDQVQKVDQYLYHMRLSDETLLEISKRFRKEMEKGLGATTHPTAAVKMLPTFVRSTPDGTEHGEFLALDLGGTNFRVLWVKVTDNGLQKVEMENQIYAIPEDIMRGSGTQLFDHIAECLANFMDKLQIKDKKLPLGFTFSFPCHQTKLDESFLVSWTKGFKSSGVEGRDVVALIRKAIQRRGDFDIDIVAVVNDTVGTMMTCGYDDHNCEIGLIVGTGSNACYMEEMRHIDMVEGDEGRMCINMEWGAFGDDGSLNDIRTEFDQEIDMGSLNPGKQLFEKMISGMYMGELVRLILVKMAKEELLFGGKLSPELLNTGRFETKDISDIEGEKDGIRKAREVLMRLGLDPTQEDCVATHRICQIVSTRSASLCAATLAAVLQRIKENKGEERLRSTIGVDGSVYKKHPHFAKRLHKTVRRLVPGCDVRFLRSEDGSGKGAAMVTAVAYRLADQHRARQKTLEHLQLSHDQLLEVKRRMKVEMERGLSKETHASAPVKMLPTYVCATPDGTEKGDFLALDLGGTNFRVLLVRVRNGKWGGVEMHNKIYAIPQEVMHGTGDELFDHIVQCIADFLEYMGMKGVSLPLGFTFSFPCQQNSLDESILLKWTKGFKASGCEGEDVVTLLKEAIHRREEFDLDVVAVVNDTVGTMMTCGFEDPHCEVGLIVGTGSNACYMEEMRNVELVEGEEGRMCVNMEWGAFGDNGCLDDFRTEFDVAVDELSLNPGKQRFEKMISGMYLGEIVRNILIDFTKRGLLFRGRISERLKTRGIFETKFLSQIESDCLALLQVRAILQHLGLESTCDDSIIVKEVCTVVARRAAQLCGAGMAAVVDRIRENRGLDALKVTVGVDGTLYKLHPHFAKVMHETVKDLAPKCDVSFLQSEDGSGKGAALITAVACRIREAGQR
The experiment in a line: ELISA; His-PRKAR1a (50 nM) held on nickel-coated plates, then Myc-HK2 (32 nM, 2 h) or buffer, then GST-GSK3β (0-64 nM, 2 h); detected with anti-GST-HRP; G6P (0-1000 µM) added for the last 30 min in the inhibition panel; both purified. A general note: An ELISA detects its analyte on a solid surface through an enzyme-linked reagent.

The target in another test is T3, His-HK2 (UniProt P52789).
T3 sequence: T2 sequence
As to the kind of experiment: ELISA; His-HK2 (50 nM) held on nickel-coated 8-well strips, then Myc-PRKAR1α (32 nM), PKAc (20 nM) and GST-GSK3β (32 nM) in turn, 1 h each at room temperature; bound proteins detected with antibodies; controls without His-HK2 or Myc-PRKAR1α; both purified.

For test [2], the target named is T4, full length HK2, bait of the yeast two-hybrid screen (UniProt P27881).
T4 sequence: T1 sequence
The experiment in a line: two-hybrid; unbiased yeast two-hybrid screen with full length HK2 as bait.

Test [3] addresses T5, endogenous HK2 of HEK293 cells (human (endogenous in HEK293)) (UniProt P52789).
T5 sequence: T2 sequence
The experiment in a line: condition: only glucose replaced with 10 mM 2-DG for 2 h; co-IP; as a5, but glucose replaced with 10 mM 2-DG.

In test [4] the target is T5, endogenous HK2 of HEK293 cells (human (endogenous in HEK293)). The experiment in a line: co-IP; endogenous HK2 immunoprecipitated with anti-HK2 from HEK293 cells (Fig. 2f) or 4T1 cells (Supplementary Fig. 15c) kept 2 h with 10 mM glucose; immunoblot with anti-GSK3α/β. Background: A western blot detects proteins with antibodies after separation by electrophoresis.
Test [5] concerns the target T6, HA-tagged HK2 (rat hexokinase 2) stably expressed in HEK293 cells (rat) (UniProt P27881).
T6 sequence: T1 sequence
The experiment in a line: condition: only glucose replaced with 10 mM 2-DG for 2 h; co-IP; as a3, but glucose replaced with 10 mM 2-DG for 2 h.

Test [6] addresses T6, HA-tagged HK2 (rat hexokinase 2) stably expressed in HEK293 cells (rat). As to the kind of experiment: co-IP; HEK293-HK2-HA cells transfected with myc-GSK3β, 2 h in glucose-free medium with 10 mM glucose; HK2 immunoprecipitated (anti-HA), immunoblot with anti-myc-HRP and anti-PRKAR1a.
Test [7] shares this target. The experiment in a line: co-IP; as a3, but glucose replaced with 10 mM 2-DG for 2 h.

No constants are given. Whether binding was seen depends on the method and setting. For part of these data: In cells and extracts the contact can be indirect. Some entries that bind do so weakly or less than the wild type. For part of these data: Sequences can lack the tags named with a protein.

Turning to “GSK3β in MI5-4 CHO cells (from UniProt P49841 1-420) (enzyme)”, the binding result in [1] was “binds”. As to “GST-GSK3β (from UniProt P49841 1-420) (enzyme)”, the binding entry in the test with Myc-HK2 and with His-HK2 was “binds” each time.

Regarding Myc-PRKAR1α (from UniProt P10644 1-381), in the test with His-HK2, the binding entry is reported as “binds”. With “PRKAR1a fragment containing the first 129 amino acids (dimerization/docking domain) (from UniProt P10644 1-129) (domain or fragment)”, in test [2], the binding entry is “binds”. Consider “endogenous GSK3β of HEK293 cells (from UniProt P49841 1-420) (enzyme)”, for which the binding result in [3] is “no binding”; in test [4] it was “binds”.

With “endogenous PRKAR1a of HEK293 cells (from UniProt P10644 1-381)”, the binding entry is given as “no binding” in test [5] and “binds” in test [6]. Regarding “myc-GSK3β (glycogen synthase kinase 3 beta), wild type (from UniProt P49841 1-420) (enzyme)”, the binding entry in [7] was “binds weakly”; in test [5] it was “no binding”; in test [6], “binds”.
